Among all 310,000 compounds or so, about 2,200 (0.71%) showed an effect of 50% or more. The effect is printed as a negative number. The list shows a part of the results.
target: human ether-à-go-go-related gene (hERG) potassium channel (human, UniProt Q12809); test: primary screen, population patch clamp on CHO cells stably expressing hERG
Sequence (Q12809 whole entry, looked up): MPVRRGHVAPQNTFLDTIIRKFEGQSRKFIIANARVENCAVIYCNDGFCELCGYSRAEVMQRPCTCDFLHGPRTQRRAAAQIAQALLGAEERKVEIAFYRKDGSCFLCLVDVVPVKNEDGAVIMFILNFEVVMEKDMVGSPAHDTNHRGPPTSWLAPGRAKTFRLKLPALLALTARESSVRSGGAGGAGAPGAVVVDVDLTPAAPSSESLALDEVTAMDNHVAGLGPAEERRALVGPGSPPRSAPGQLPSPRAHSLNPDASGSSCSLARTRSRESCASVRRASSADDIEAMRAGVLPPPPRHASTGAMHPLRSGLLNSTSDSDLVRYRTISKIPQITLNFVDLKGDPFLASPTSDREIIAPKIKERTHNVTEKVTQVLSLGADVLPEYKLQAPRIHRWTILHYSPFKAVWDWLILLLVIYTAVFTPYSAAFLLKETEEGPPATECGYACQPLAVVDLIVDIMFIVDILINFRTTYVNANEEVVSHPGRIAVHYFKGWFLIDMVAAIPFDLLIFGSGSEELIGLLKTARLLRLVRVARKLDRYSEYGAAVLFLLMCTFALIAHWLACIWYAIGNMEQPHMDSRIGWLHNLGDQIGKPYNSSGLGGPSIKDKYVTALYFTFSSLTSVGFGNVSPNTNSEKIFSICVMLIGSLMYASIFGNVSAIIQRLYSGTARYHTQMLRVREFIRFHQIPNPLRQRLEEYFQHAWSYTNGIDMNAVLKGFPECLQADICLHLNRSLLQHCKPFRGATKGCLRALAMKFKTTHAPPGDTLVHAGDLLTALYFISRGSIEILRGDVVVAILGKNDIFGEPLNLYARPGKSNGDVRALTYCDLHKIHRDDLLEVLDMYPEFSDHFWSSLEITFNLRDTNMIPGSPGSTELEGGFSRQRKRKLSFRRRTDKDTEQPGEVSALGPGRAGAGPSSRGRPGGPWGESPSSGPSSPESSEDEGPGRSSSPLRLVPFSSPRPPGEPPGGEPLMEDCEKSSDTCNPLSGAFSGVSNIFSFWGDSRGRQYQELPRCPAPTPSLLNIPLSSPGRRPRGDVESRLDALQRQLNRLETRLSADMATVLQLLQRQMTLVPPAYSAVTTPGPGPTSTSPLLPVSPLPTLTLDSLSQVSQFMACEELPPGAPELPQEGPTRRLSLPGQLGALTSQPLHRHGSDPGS

Structure (SMILES)	hERG current change (%, negative = inhibition) at 1uM [%]
COc1ccc(N2CC(C(=O)Nc3nnc(SCC(=O)NC(C)(C)C)s3)CC2=O)cc1 (stereo not shown)	9.2
CCN(CC)S(=O)(=O)c1ccc(/C=C/C(=O)OCC(=O)Nc2ccc(S(N)(=O)=O)cc2)cc1	-3.26
Cn1cnnc1SCC(=O)c1cc2ccccc2oc1=O	10.6
Cc1c(Cl)cccc1NC(=O)COC(=O)C12CC3CC(CC(O)(C3)C1)C2	6.7
Cc1c(CCC(=O)O)c(=O)oc2cc3occ(-c4ccc(Cl)cc4)c3cc12	16
Cc1cc(C(F)(F)F)n2nc(-c3cnn(C)c3C(F)(F)F)c(Br)c2n1	-5.85
Cc1ccc2nc(-c3ccncc3)cc(C(=O)Nc3ccc(OC(F)F)cc3)c2c1	6.52
O=C(NC1CCCCC1)C(c1cccs1)N(Cc1cccs1)C(=O)c1cccs1 (stereo not shown)	12.5
CC(=O)Nc1nc(-c2ccc(Br)s2)cs1	14.8
O=C(c1ccc(Cl)cc1)c1c[nH]c(C(=O)NNc2cccc(Cl)n2)c1	12.8
N#CC1=C(SCC(N)=O)NC2=C(C(=O)c3ccccc32)C1c1ccc(Cl)cc1 (stereo not shown)	5.65
CCNS(=O)(=O)c1ccc(CCC(=O)N2CCN(C(=O)OCC)CC2)cc1	10.8
CCOC(=O)Cc1cnc(NC(=O)NC(C(=O)OCC)(c2ccccc2)C(F)(F)F)s1 (stereo not shown)	-0.0449
O=C(N/N=C/c1ccc(OCc2ccccc2)cc1)c1cccs1	15.9
Fc1cccc(/C=N/Nc2cc(N3CCOCC3)ncn2)c1	16.8
COc1ccccc1-c1cnn2c(N3CCOCC3)cc(C)nc12	17.6
CC(C)CCNC(=O)c1cn(C)c2ccc(S(=O)(=O)N3CCCC3)cc2c1=O	4.69
CCN1C(=O)N[C@@H](c2cccc(C(F)(F)F)c2)C(C(C)=O)=C1C	4.91
Cc1cc(C)cc(OCc2nnc(SCC(=O)N3CCCCC3)o2)c1	10.2
COc1ccc(NC(=O)C2CCCN2S(=O)(=O)c2ccc3c(c2)CCC(=O)N3)cc1Cl (stereo not shown)	-6.94
COc1ccc(Cn2nnnc2CN(CCCN2CCOCC2)Cc2cc3cc(OC)ccc3[nH]c2=O)cc1	0.319
COc1ccc(Cl)cc1C(=O)Nc1cccc2ncccc12	14.6

Structure (SMILES)	hERG current change (%, negative = inhibition) at 1uM [%]
O=C(C(=O)N1CCc2ccccc2C1)c1cn(CC(=O)N2CCOCC2)c2ccccc12	2.59
C[C@H]1NC(=O)[C@@]2(C)[C@@H](c3ccccc3)[C@H]3COc4ccccc4[C@@H]3N2C1=O	11.1
O=C(O)CC1(O)C(=O)N(Cc2ccccc2)c2ccccc21 (stereo not shown)	14.2
Cc1occc1C(=O)NNC(=O)C1CCCC1	-1.21
CCN(c1cccc(C)c1)S(=O)(=O)c1ccc(-c2coc(C)n2)cc1	14.1
O=C(O)C(=O)O.c1ccc(Cn2c(SCCN3CCOCC3)nnc2-c2cccnc2)cc1	11.2
O=C(OCC(=O)N1CCN(c2ccccc2)CC1)c1cnc(Cl)c(Cl)c1	-12.7
Cc1cc(C)cc(OCC(=O)OCC(=O)N2CCc3ccccc32)c1	10.8
Cc1cccc(-n2c(SCC(=O)c3c(N)n(C4CC4)c(=O)[nH]c3=O)nnc2N2CCOCC2)c1	9.07
C=CCSc1nc2ccccc2n1C(=O)/C=C/c1cc(OC)c(OC)c(OC)c1	8.24
O=C(c1ccc2c(c1)OCCO2)C1CCN(C(=O)c2ccc(F)c(F)c2)CC1	2.71
O=C(NC(Cc1ccccc1)C(=O)N1CCN(S(=O)(=O)c2ccccc2F)CC1)c1ccccc1 (stereo not shown)	11.7
Cc1cc(C)nc(/N=c2/ssnc2Cl)c1	-2.66
CCOC(=O)c1ccc2nc(NC(=O)c3cccs3)sc2c1	8.7
CCN(CC(=O)Nc1ccccc1C(F)(F)F)C(=O)c1ccc(=O)n(Cc2ccccc2)n1	-2.63
O=C(O)C(=O)O.O=S(=O)(c1ccccc1)N1CCN(CC2CC3C=CC2C3)CC1 (stereo not shown)	3.05
CCOC(=O)C1CCCN(Cc2c(F)cccc2Cl)C1 (stereo not shown)	-6.01
CC(=O)NCCC(=O)Nc1cc(S(=O)(=O)N2CCOCC2)ccc1Oc1ccccc1	10.7
CCc1sc(NC(=O)CN2CCOCC2)nc1-c1ccccc1	5.32
COc1ccc(C#Cc2c(-c3ccc(OC)cc3)oc3ccc(-c4ccc(OC)cc4)cc23)cc1	3.27
O=CN1CCN(C2CC(=O)N(c3ccc4c(c3)OCO4)C2=O)CC1 (stereo not shown)	9.67
CC(=O)N1CCN(S(=O)(=O)c2cccc(C(=O)Nc3nc4ccccc4[nH]3)c2)CC1	15.3

Structure (SMILES)	hERG current change (%, negative = inhibition) at 1uM [%]
CCOC(=O)[C@H]1[C@H]2COc3cc(OC)ccc3[C@@H]2N2C(=O)c3cc(F)c(F)cc3NC(=O)[C@@]12C	6.58
O=C(COc1ccccc1)N(Cc1ccco1)C1CCS(=O)(=O)C1 (stereo not shown)	-0.714
CN(C)c1ccc(C(=O)Nc2nnc(C3=COCCO3)o2)cc1	8.48
CCC(C(=O)Nc1ccc(S(=O)(=O)Nc2ncccn2)cc1)c1ccccc1 (stereo not shown)	12.7
Cc1ccc(/C=N/NC(=O)c2c[nH]c3ccccc23)o1	13.5
O=C(Cc1ccc([N+](=O)[O-])cc1)Nc1ccc(Br)cn1	3.47
Cc1sc(Cc2nc(O)cs2)nc1-c1ccccc1	16.6
COC(=O)c1ccccc1NC(=O)N1CCc2ccc(NC(=O)c3ccccn3)cc2C1	4.89
Cc1cc(=O)oc2c3c(cc(OCC(=O)NCc4ccccc4)c12)OC(C)(C)CC3	2.04
Cl.c1ccc(C2CCC(N3CCNCC3)CC2)cc1 (stereo not shown)	-4.05
N#CCCN(Cc1ccccc1)S(=O)(=O)c1cccs1	8.93
C=CCOc1ccc(/C(CC)=N/O)cc1OC	13
N#CCSc1nc2ccc(N3CCOCC3)cc2c(=O)n1CCc1ccccc1	3.24
COc1ccc(CNCCc2ccc([N+](=O)[O-])cc2)c(OC)c1OC.O=C(O)C(=O)O	-49.4
CC(=O)Nc1ccc(N/C=C/C(=O)c2ccc(C)o2)cc1	11.7
COc1ccccc1/C=N/NC(=O)CCn1cnc2ccccc21	9.63
CC(C)(C)c1ccc(NC(=O)c2cc[n+]([O-])cc2)cc1	11.6
Cc1ccc(NC(=O)C(C)SCc2nc3sc4c(c3c(=O)[nH]2)CCCC4)nc1 (stereo not shown)	3.05
Cc1cccc(-n2c(SCC(=O)Nc3nnc(C)s3)nnc2-c2ccoc2C)c1	-8.46
C=CCn1c(COc2ccc(Cl)cc2)nnc1SCC(=O)N1CC(=O)Nc2ccccc21	-7.22
COc1c(O)cc2c(c1O)[C@@H]1O[C@H](CO)[C@@H](O)[C@H](O)[C@H]1OC2=O	12.8
O=C(NCc1ccco1)/C(=C\c1cccc([N+](=O)[O-])c1)NC(=O)c1ccco1	-29.9

Structure (SMILES)	hERG current change (%, negative = inhibition) at 1uM [%]
COc1ccc(C2Nc3ccccc3C(=O)N2Cc2ccccc2)cc1CN1CCOCC1 (stereo not shown)	-12.5
C/C(=N\NC(=O)C1CC1)c1ccccc1Br	15
CCCn1c(=O)c(C(=O)Nc2cccc(C)c2)c(O)c2ccccc21	6.52
C=CCN(C(=O)C1CC(=O)N(C2CCCC2)C1)c1nc(-c2ccc(S(C)(=O)=O)cc2)cs1 (stereo not shown)	8.45
O=C(O)c1ccn(CSc2cc(Cl)ccc2Cl)n1	10.4
COc1ccc(NC(=O)N2CCN(C(=O)Nc3ccc(OC)cc3)CC2)cc1	11
Cn1c(SCc2ccccc2Cl)nc2ccccc21	13.6
Cc1ccc(-c2ccc(/C=N/N3C(=O)C4C5C=CC(C6CC56)C4C3=O)o2)c([N+](=O)[O-])c1 (stereo not shown)	3.7
O=C(O)CSCC(=O)Nc1ccccn1	13.5
CC[C@H](C)C(N)c1cn([C@@H](CC(N)=O)C(=O)N2CCNCC2)nn1 (stereo partly shown)	-7.01
Cc1cccc(C(=O)OCC(=O)N2CCCC2=O)c1[N+](=O)[O-]	-3.24
COc1ccc(C(=O)NCCNC(=O)c2cnccn2)cc1OC	16.2
CC(C)=CCC/C(C)=C/CC/C(C)=C/CC/C(C)=C/CC1=C(C)C(=O)c2ccccc2C1=O	12.3
CCCCOC(=O)c1ccc(NC(=O)c2cnc3n(c2=O)CCS3)cc1	7.18
CCc1cc(-c2nnc(SCC(=O)NC3CC3)n2C)cs1	5.22
Fc1ccccc1NC(=S)N1CCN(c2ccccn2)CC1	16.9
CCOc1ccc(Br)cc1S(=O)(=O)Nc1cccc(S(=O)(=O)NC2=NCCC2)c1	10.7
O=C(O)c1cccc(Nc2nc(Nc3ccccc3)nc(N3CCCC3)n2)c1	12.4
Cc1ccc2c(c1)c1c(n2CC(O)CN2CCCCCC2)CCCC1.Cl (stereo not shown)	-2.41
